# Measured values: PubChem BioAssay AID624172 (National Center for Advancing Translational Sciences (NCATS), 2012)
# The whole screen tested about 380,000 compounds, of which about 25 (0.007%) were called active. Inconclusive means that the source gave no clear call. Such entries were picked first, then a sample of the others. Calls follow the shape of the dose curve; as a rule, active = well fitted activation curve with a large enough effect; inconclusive = small, poorly fitted or top-dose-only effect; inactive = no such curve, though single readings can be large or run the other way. No potency is given beside an inconclusive call; the fits are too rough.
# Molecular target: Glucagon-like peptide 1 receptor (Homo sapiens) (UniProt P43220)
# UniProt P43220, sequence (P43220 whole entry, looked up): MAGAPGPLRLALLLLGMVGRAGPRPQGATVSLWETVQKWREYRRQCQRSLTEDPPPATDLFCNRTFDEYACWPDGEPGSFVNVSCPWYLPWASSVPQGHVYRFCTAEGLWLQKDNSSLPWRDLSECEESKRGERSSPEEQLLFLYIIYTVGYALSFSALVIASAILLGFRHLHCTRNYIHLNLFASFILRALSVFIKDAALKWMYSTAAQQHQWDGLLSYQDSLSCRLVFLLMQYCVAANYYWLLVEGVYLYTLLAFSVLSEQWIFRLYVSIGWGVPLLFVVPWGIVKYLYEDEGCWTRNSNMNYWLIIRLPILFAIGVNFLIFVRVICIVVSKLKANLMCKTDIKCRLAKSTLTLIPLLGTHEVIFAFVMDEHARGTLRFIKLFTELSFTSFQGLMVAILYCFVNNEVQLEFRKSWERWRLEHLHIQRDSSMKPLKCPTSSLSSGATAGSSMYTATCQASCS
# Experiment: qHTS of GLP-1 Receptor Agonists; as to activation: % of control where 0% means no effect
# Settings: HEK293 GLP-1R CRE-luciferase, luminescence, 4-6 h, cells express a hypersensitive GLP-1R form; activation: at 45.6 µM (top of the series) unless noted
# Potency is read from the fitted curve at half-maximal effect; tags tell the direction and shape of the fitted curve.
SMILES,Potency,activation
OCC1(CCOc2ccccc2)CCN(Cc2cn[nH]c2-c2ccc(F)cc2)CC1,"inconclusive [activator, single point]",
O=c1c2ccccc2nnn1Cc1ccccn1,"inconclusive [activator, partial curve, poor fit]",
CCN1CC(CN(C)Cc2cn(-c3cccc(C)c3)nc2-c2cccc(F)c2)CC1=O (stereo not given),"inconclusive [activator, partial curve, poor fit]",
CCOC(=O)C1=C(COC(=O)c2cc(OC)c(OC)c(OC)c2)NC(=O)NC1C (stereo not given),"inconclusive [activator, single point]",
CCc1cc(C(=O)O)c(NC(=O)C(c2ccccc2)c2ccccc2)s1,"inconclusive [activator, single point]",
N#Cc1cc2c(nc1SCc1cccnc1)CCCCC2,"inconclusive [activator, partial curve]",
COc1ccc(C2=NOC(C(=O)Nc3ccc4c(c3)OCO4)C2)cc1OC (stereo not given),"inconclusive [activator, single point]",
COCCCNC(=S)N/N=C/c1ccc2ccccc2c1,"inconclusive [activator, single point]",
Cc1nc2ccccc2c2oc(C(=O)N3CCCC(C)C3)cc12 (stereo not given),"inconclusive [activator, partial curve, poor fit]",
COc1ccc(C(C)(O)c2nc(-c3ccc(OC)c(OC)c3)cs2)cc1 (stereo not given),"inconclusive [activator, partial curve]",
O=C(C(=O)N1CCN(c2ccccc2F)CC1)c1cn(CC(=O)N2CCCC2)c2ccccc12,inactive,
COc1ccccc1-c1noc(CCCC(=O)NC2CCCCC2)n1,inactive,
CN(C)S(=O)(=O)c1ccc(Cl)c(NC(=O)CN2CCC(Cc3ccccc3)CC2)c1,,inconclusive: 39.7% [activator]
COc1ccccc1-c1nnc(SCC(=O)OC(C)C)o1,"inconclusive [activator, partial curve]",
CN(C)c1ncnc2c1C(c1ccccc1)C(C)(C)O2 (stereo not given),inactive,
C=CCN1C(=O)C(CC(=O)Nc2ccc(OCCC)cc2)N(CCCN2CCN(Cc3ccccc3)CC2)C1=S (stereo not given),inactive,
Cc1nc2ccc(NC3=NCCCCC3)cc2s1,inactive,
CC(=O)c1ccsc1-c1c(C)cc2oc(=O)cc(-c3ccccc3)c2c1C,"inconclusive [activator, full curve, poor fit]",
CCOC(=O)C1CCCN(C(=O)CCc2nnc(-c3ccc(C(C)=O)s3)o2)C1 (stereo not given),inactive,
CN(C)c1ccc(-c2nn3c(-c4ccccc4Cl)nnc3s2)cc1,inactive,
CCOc1ccc(NC(=O)CCSc2nc(-c3ccc4c(c3)OCO4)cc(C(F)(F)F)n2)cc1,"inconclusive [activator, single point]",
CCOC(=O)c1c(-c2ccccc2)oc2ccc(OCC)cc12,inactive,
NS(=O)(=O)c1cccnc1Nc1c(Cl)cccc1Cl,inactive,
COC(=O)c1cc(OC)c(OC)cc1NC(=O)C1CCC(=O)N1S(=O)(=O)c1ccc(C)cc1 (stereo not given),"inconclusive [activator, partial curve, poor fit]",

SMILES,Potency,activation
N/C(=N\OC(=O)CCC1CCCCC1)c1ccc([N+](=O)[O-])cc1,inactive,
CCCCC(=O)Nc1ccc2oc(-c3cccnc3)nc2c1,"inconclusive [activator, partial curve, poor fit]",
Cc1nc(N2CCCC2)c2ccsc2n1,"inconclusive [activator, partial curve, poor fit]",
Cc1cc(C)c(NC(=O)OCCN2CCOCC2)c(C)c1,inactive,
COc1ccc(-n2c(SCc3cn4c(C)cccc4n3)nc3ccccc3c2=O)cc1OC,"inconclusive [activator, partial curve]",
COC(=O)C=CC(=NNc1ccccc1)c1ccccc1,"inconclusive [activator, partial curve, poor fit]",
CC(=O)C(C)Oc1ccc2c3c(c(=O)oc2c1C)CCCC3 (stereo not given),"inconclusive [activator, partial curve]",
CCOP(=O)(OCC)C(C)(C)NC(=O)Nc1ccc(Cl)c(Cl)c1,"inconclusive [activator, single point]",
CS(=O)(=O)c1ccc(-c2cnc3c(NC=O)cc(-c4ccsc4)cn23)cc1,"inconclusive [activator, partial curve]",
COc1ccc(/C=N/NC(=O)c2cc(C)n(-c3ccccc3)c2C)cc1OC,"inconclusive [activator, partial curve, poor fit]",
O=C1Nc2ccccc2C1Cc1ccccc1 (stereo not given),"inconclusive [activator, single point]",
CCN(CC)c1ccc(NC(=O)C2=CC=CN3CCS(=O)(=O)N=C23)cc1,inactive,
CCCNC(=O)c1oc2ccc3c(c2c1C)C=CC(C)(C)O3,"inconclusive [activator, partial curve, poor fit]",
COc1cc(/C=C/C(=O)OCC(=O)N2CCCc3ccccc32)ccc1OCC#N,"inconclusive [activator, single point]",
Nc1c(Cl)cc(-c2csc(NC(CO)c3nc4ccccc4n3CCOCCO)n2)cc1Cl (stereo not given),"inconclusive [activator, partial curve]",
COc1ccc(CN(C)C(=O)CC(c2ccccc2)c2ccccc2)cc1,"inconclusive [activator, partial curve, poor fit]",
CSc1c(C#N)c(N)c(C#N)c2c1COC(C)(C)C2,"inconclusive [activator, partial curve]",
CCC(CC)C1C(C#N)=C(N)Oc2n[nH]c(-c3ccccc3)c21 (stereo not given),inactive,
COc1ccc(CC(=O)Nc2nc(-c3ccc(F)c(F)c3)cs2)cc1,inactive,
CCc1ccccc1N1C(=O)N(C)c2ccccc2S1(=O)=O,inactive,
CC(C)=CCCC1(C)C=Cc2c(c(C)cc3c2[nH]c2cc(O)ccc23)O1 (stereo not given),inactive,
CC(C)Oc1ccc(-c2nc(NCC3CCCO3)c3ccccc3n2)cc1 (stereo not given),"inconclusive [activator, partial curve, poor fit]",
Cc1cc(C)c(C#N)c(OCC(=O)Nc2ccccc2)n1,,inconclusive: 38.9% [activator]
CCOC(=O)C1=C(C)C(c2ccccc2)NC(=S)N1 (stereo not given),inactive,

SMILES,Potency,activation
Cn1ncc2c(Nc3ccccc3Cl)nc(Nc3ccccc3Cl)nc21,"inconclusive [activator, partial curve]",
COc1ccc(/C(N)=N/OC(=O)CC2CCCCC2)cc1OC,"inconclusive [activator, partial curve, poor fit]",
Clc1ccc(C2=Nn3c(Cn4nnc5ccccc54)nnc3SC2)cc1,"inconclusive [activator, single point]",
CC/C(=N\NC(=O)Nc1nonc1N)c1ccc(OC)c(OC)c1,"inconclusive [activator, partial curve, poor fit]",
O=C(CSCc1ccccc1F)NCc1ccc(F)cc1,"inconclusive [activator, partial curve]",
C(=N\n1cnc2ccccc21)/c1cccnc1,"inconclusive [activator, single point]",
COc1ccc(CCNC(=O)C2CCN(C(=O)c3ccc(Cl)cc3)CC2)cc1,inactive,
O=C(COc1cccc([N+](=O)[O-])c1)N/N=C/c1ccco1,,inconclusive: 40.4% [activator]
COc1ccc(C)cc1NC(=O)CSc1ccc(-c2ccccn2)nn1,inactive,
COc1cc(O)cc2occ(-c3ccc(O)cc3)c(=O)c12,"inconclusive [activator, single point]",
Cc1cc(C)n2ncc(C(=O)NCCc3ccccc3)c2n1,"inconclusive [activator, partial curve]",
CC(=O)c1ccc(NC(=O)c2cnn3ccccc23)cc1,inactive,
CC1(C)CC(=O)C2=C(C1)N(CC1CCCO1)C(=O)NC2(C(F)(F)F)C(F)(F)F (stereo not given),,inconclusive: 43.8% [activator]
CN(C)CCNc1ncnc2c1sc1nc(N3CCOCC3)c3c(c12)CC(C)(C)SC3,"inconclusive [activator, partial curve, poor fit]",
COc1ccc(NC(=O)C2(C)Cc3c(-c4ccc5c(c4)OCO5)ccnc3O2)cc1 (stereo not given),"inconclusive [activator, single point]",
c1ccc2c(c1)ccc1nnc(SCc3ccc4c(c3)OCO4)n12,"inconclusive [activator, partial curve, poor fit]",
CC1C(c2ccccc2)OCCN1C=NC#N (stereo not given),inactive,
COc1cc2c(cc1OC)/C(=C/C(=O)c1ccc(F)cc1)NCC2,"inconclusive [activator, partial curve, poor fit]",
COCCN(Cc1ccccc1)C(=O)c1cc(-c2ccc(OC)c(OC)c2)nc2ccccc12,"inconclusive [activator, full curve]",
COc1ccc(-c2nc(C)c(CCNC(=O)c3cccs3)s2)cc1OC,"inconclusive [activator, partial curve]",
CCCCCCNc1cc2n(c(=O)n1)CCc1cc(OC)c(OC)cc1-2,"inconclusive [activator, partial curve]",
COCCNC(=S)N/N=C(\C)c1ccc2cc(OC)ccc2c1,"inconclusive [activator, partial curve, poor fit]",
